The RNAGym collection of RNA variant scans (doi:10.7554/elife.90254)
The source gives no read counts; variants with many changes may rest on few reads.

B1: LINE1-full (parent)
chain: UACGUAGGUGGUUUUCCCCUGAUAGUGCUAAGGGGGCCUGGAAGUUUGGACUGGGCAGAGCUCAACACAGCGUGGCAAAGUGGCUGUGGCUAGACUGCCUCUCUGGAUUCCUCGUCACUCAGCAGGGCAUCUCUGAGAGAAAUGCC

Variants of: B1
Experiment: self-cleavage, relative activity (ratio to wild type); higher = more cleavage; in vitro, sequencing; the parent is a self-cleaving ribozyme

Variant	self-cleavage
U73C C84A U119C A124C	0.47
A6U U20C U112C	0.72
U12C A59U U102C	1.08
U14C A77G U85C U132C	0.31
A31U U134C A142G	1.57
U39C U52A C116U	1.34
U109A U132A A138G	2.26
U14G U23C A79G U143A	1.24
U39A U73C U81C C101A	1.8
A2G U14C A59U U132C	0.61
U62C A67G U85A	0.11
U12C U39G U73A A117U	1.37
U13C G25A A50G U143C	0.89
A2G U5C A30U U47A A124G	0.63
A42G A79U A94G C123A	0.35
U15C U26C A141G	1.26
U13C G49U U96A	0.06
U52A A69G C128A G137U A138G	0.62
A43G C61U U132C U143C	0.09
G88A A124U U132C	0.06
G34U A50U A117G A138G	0
U9C U47C U143G	0.66
A117C U132C U143C	1.02
A2G U52C G53A C76U U104C	0.66

Variant	self-cleavage
A42G U100A A117U	0.69
U14C U15C A77U C113A	1.57
G4A U45G G72A U81C	0.48
G60A U108C U115C	0.01
U15G A42G A43G U85A U115C	0
U9A G80A A138U	1.65
U39A U47C G49A G97A A136U	0.09
A22G U39C A42U U87A	0.06
U12C U62C A107G C128U	0.06
G60A C113U U130G	0.03
U9C A43U U52A	0.7
G44C U81C U85C	0.41
C37U A43G A79G U85A	0.1
A24G U100A G105U A121G	1.75
G25A U104C A129C	1.18
A43G A77G A129C	1.53
A43G A78U C84U U102A	0.17
G21A U45A U91C	0.28
U46A A92G A94G U108C A136U	0
U29C A30G U85A G89A U132C	0.04
U5A U81A U115C	1.88
G32A U39A G125A	1.12
G70C U91C A140G	0.02
A2G U52A G97C C113U A129G U132A	0.44

Variant	self-cleavage
G21A A42G U96A U130C U132C	0.07
G36A A43U U115A	1
A57U A124G A141G	0.14
U26C A94U A107G	0.54
U5C G53U U112C	1.39
U96G U119C C133A	0.06
U23C U47C A69G A78G	1.02
U26C A31C G88A A129U A140G	0.17
G44A A50U U87C	0.15
A22G G41A G54A	0.54
A43U G74A U102C U130C	1.23
A124U A138G U143A	1.97
U13C G40A A43G U100C	1.74
U1C A94G U96C	0.3
A24G U47C A69G C111U	1.27
U39C U45G U85A	0.16
U45C A69G A77U	0.79
A42U U62G A65G U119C	0
U12A A50G U104C A142G	0
A57G C66U U73C	0.03
G4A U52C A65G A78G	0
U1A U13A U14C	1.25
U1C A2G A22U A31G U39C A138G	1.02
G72A U96C U134C	0.05

Variant	self-cleavage
U52C G82A U100A U130C	0.92
A65U U96A C103U G135A A140U	0.08
G33A A67U C116U	0.09
U9A U39A A79G U119C	1.25
C16U U39C U62A	0.09
A22G G97A U115C A140G	0.3
U14A U115C A121U	1.16
U13C G25A A43G U81A	2.09
U73C U104C G105U	2.04
U20C G35A A94G	0.17
A94G A107U U130A	0.26
U26C U39C U109C A138G	1.53
U46A U62A A92G	0.07
U26A A92G C118U	0.24
U12C U87A U100C A121U C145U	0.17
A2G U26C G135A	0.97
U13C U26C A50G G114A	0.82
U23A A30G U39C A57G	0.92
A42G U104A U134C	0.99
U14G U39A A79U C84G A121U	0.11
G44C G58C C66U U91C C98A	0.02
U39C U115C U134A	0.53
U12G U29A U85A U108C	0.29
U73C U119A A129G	1.36

Variant	self-cleavage
U13C A64U A129G	0.6
U91C G97A A129G A138G	0.13
U9A A94U A129U	0.26
U9C G27A U62C A92U A121G	0.08
U14C A22G G32A U62C A69U A107G	0.11
U62C A65U C71U U96C	0.12
C71U A117G A138G	1.13
U62C A78G A136U	0
U15C A57U C68U	0.03
U46C A50G U109C	0
A6G U46C U62A A69G C90A	0.22
A50G U134C A141G A142G	1.8
U23A U39C A42G A59U A64G U130A	0.37
U23C G54A U100A U143C	0.22
A22G A42G A50G U85C	0
A124G U134C A141G	1.23
A64C U87C U115C	0
U47C A64U A124G	0.37
A92G A94G G139A	0
U29C U85C A136G	0.21
U13C U100A G122A	0.73
C3U G58A U115A	0.29
G21U A31G U104A	0.72
G21U U130C A138G	2.16

Variant	self-cleavage
U12C C90U A107G G114A	0.02
U12G A121U U134A	1.72
U5C U20A U26A A117G	1.84
A78G U96A U115C A140C	0.06
U20C C90U A138G	0
G54A A65G U134C	0.08
U12C A42U U62C A117G	0
G40A A129G U143G	1.05
A22G A57G A94U	0
U14C C71A A78G C98A	0.03
U9A A78U U100C A142G	1.65
U45A U47A A94U A141G	0.27
C28U U62C U132A	0.06
G35C U108C U130C	1.04
U20C U39A U104A	1.29
U14A C38A U46C U73C A140G	1.15
A30U A64U A107U A136G	0.42
U13A U81A U104A	1.35
A50U A78G U104C A129U C133U A142G	1.68
U39A U85C A121G A142U	0.09
G41A A79G U104C	1.08
A2G A30U C84U G127C	0.66
U12C U29C A57U A78U U134A A140U	0.38
A57U A64G A121G A129G	0

Variant	self-cleavage
A2G G27A U130C U134C	1.11
A30U A50G C63U A78G A94G	0
A42U A65G U132C	0.04
U9A A43G A69G U130C A140G	0
C84A U96A A141G	0.04
C71U A77U U132C	0
U13C C90U U96C A117U A142G	0.04
A77G U115C A142G	1.15
C51A U109C A141G	1.58
C19U G55U A77G U104C A142G	1.07
A50U A67G U100A U134A	0
A6G U29C G58A U102A U130C A142G	0.23
U39C U52A A69U G144A	0
U12C U13C U130C G137A	1.19
A22G A50G A136G	1.02
A2G C18A U39A C68U A94U	0.2
U13C U52A C111U	1.08
U85C U104A A129G	0.14
C16U U47C U85A U102A	0.38
U108C A124G U143C	2.83
A59U U73A U102C A136U	0.89
U14C A50U A142G	0.66
A57G A136U A138G	1.24
